{"source": "the supplement of paper PMC3334620", "note": "Over roughly 33,000 sequences, “E-score (-0.5 to 0.5)” has its median near -0.016; the highest 2% begin near 0.31. The list shows a part of the results.", "data": [{"target": "Cst6 (UniProt P40535)", "test": "PBM E-score (8-mer binding enrichment) (E-score (-0.5 to 0.5)); higher = stronger / more preferred TF binding; most listed sequences are background and not binding sites", "details": "protein concentration: 200 nM; construct: GST-DNA-binding domain", "how_it_was_run": "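For each ungapped eight-base word taken together with its reverse complement, the Universal PBM Analysis Suite assigned an E-score. Binding data came from GST-tagged yeast transcription factors, applied at about 100-200 nM, on universal all-10-mer Agilent arrays made double-stranded by primer extension. Fluorescent anti-GST marked bound protein, and scans were normalised with masliner.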", "values": [{"sequence": "GACGACCC", "PBM E-score": -0.208}, {"sequence": "CGCCGTAC", "PBM E-score": 0.278}, {"sequence": "GACCCAAC", "PBM E-score": -0.119}, {"sequence": "CCAAGGCA", "PBM E-score": 0.031}, {"sequence": "ACCGTGTC", "PBM E-score": -0.0674}, {"sequence": "ACACTTCC", "PBM E-score": 0.0379}, {"sequence": "AATGTCGC", "PBM E-score": 0.0324}, {"sequence": "GGGTCGAC", "PBM E-score": -0.322}, {"sequence": "CTCCGGCA", "PBM E-score": 0.0582}, {"sequence": "CAGCGTAC", "PBM E-score": -0.113}, {"sequence": "CTCCTTTC", "PBM E-score": -0.0597}, {"sequence": "AAGCTTTA", "PBM E-score": -0.0344}, {"sequence": "ACTGTAGA", "PBM E-score": 0.101}, {"sequence": "CGGGGTAC", "PBM E-score": -0.31}, {"sequence": "CAGGTCGC", "PBM E-score": -0.22}, {"sequence": "TCAAATAA", "PBM E-score": 0.238}, {"sequence": "ATTTCTCA", "PBM E-score": 0.0463}, {"sequence": "ATGGGTTC", "PBM E-score": -0.254}, {"sequence": "AGGGTATA", "PBM E-score": -0.0418}, {"sequence": "ATGTGATC", "PBM E-score": 0.139}, {"sequence": "CGTATAAA", "PBM E-score": 0.211}, {"sequence": "GCCTATCA", "PBM E-score": 0.0365}, {"sequence": "ATATAGGA", "PBM E-score": 0.045}, {"sequence": "GGTCGCAA", "PBM E-score": -0.0741}, {"sequence": "ATCACTTG", "PBM E-score": 0.0983}, {"sequence": "GCGGGGGA", "PBM E-score": -0.355}, {"sequence": "CCATCACC", "PBM E-score": 0.15}, {"sequence": "AAATCCTG", "PBM E-score": 0.0199}, {"sequence": "CACCGTAC", "PBM E-score": -0.112}, {"sequence": "CATGCTTA", "PBM E-score": 0.078}, {"sequence": "TCTAATCA", "PBM E-score": 0.174}, {"sequence": "GGATTTTA", "PBM E-score": 0.0738}, {"sequence": "CTACGTAG", "PBM E-score": 0.137}, {"sequence": "AAGCGTCT", "PBM E-score": -0.28}, {"sequence": "AGGCCTTA", "PBM E-score": -0.116}, {"sequence": "TATTATCA", "PBM E-score": 0.249}, {"sequence": "CAATGACG", "PBM E-score": 0.469}, {"sequence": "ATGTAAGC", "PBM E-score": 0.143}, {"sequence": "CCTAAAGA", "PBM E-score": -0.0364}, {"sequence": "GTAATCGA", "PBM E-score": 0.268}, {"sequence": "AGTGGCTA", "PBM E-score": -0.0472}, {"sequence": "ACGAACAC", "PBM E-score": 0.138}, {"sequence": "TGGAAACA", "PBM E-score": -0.0385}, {"sequence": "GAGATTCA", "PBM E-score": -0.123}, {"sequence": "CCCTTGAC", "PBM E-score": -0.0184}, {"sequence": "CAACTATG", "PBM E-score": 0.0897}, {"sequence": "CGATTTCA", "PBM E-score": 0.0133}, {"sequence": "CAGGACTA", "PBM E-score": -0.267}, {"sequence": "CTCGTTTA", "PBM E-score": 0.109}, {"sequence": "CGTTTCCA", "PBM E-score": 0.134}, {"sequence": "AAGATCTT", "PBM E-score": 0.112}, {"sequence": "CTTTTTAA", "PBM E-score": 0.161}, {"sequence": "CGGCGTCA", "PBM E-score": 0.34}, {"sequence": "CTCTGCAG", "PBM E-score": -0.24}, {"sequence": "ACAAGCGG", "PBM E-score": 0.0213}, {"sequence": "AATAGACC", "PBM E-score": 0.00116}, {"sequence": "ACCGTAAT", "PBM E-score": 0.167}, {"sequence": "GATGTCAC", "PBM E-score": 0.448}, {"sequence": "ATGAGAAC", "PBM E-score": 0.0633}, {"sequence": "ATCATGAC", "PBM E-score": 0.446}, {"sequence": "ACTATCAA", "PBM E-score": 0.06}, {"sequence": "CCAGCCGA", "PBM E-score": -0.257}, {"sequence": "CGGAACTC", "PBM E-score": -0.255}, {"sequence": "GTAGGAGA", "PBM E-score": -0.187}, {"sequence": "AAAGACAG", "PBM E-score": 0.131}, {"sequence": "CCCAGTAG", "PBM E-score": -0.159}, {"sequence": "GGCATAAA", "PBM E-score": 0.204}, {"sequence": "GACCTGAC", "PBM E-score": -0.0408}, {"sequence": "ACAGTGAA", "PBM E-score": 0.146}, {"sequence": "AGAGGGCG", "PBM E-score": -0.0402}, {"sequence": "GAGGCCCA", "PBM E-score": -0.276}, {"sequence": "AGCCCCTA", "PBM E-score": -0.372}, {"sequence": "AATGTACC", "PBM E-score": -0.0127}, {"sequence": "TGAACTAA", "PBM E-score": 0.128}, {"sequence": "CTCGAGAG", "PBM E-score": -0.134}, {"sequence": "GGATAACC", "PBM E-score": -0.276}, {"sequence": "AAGTTATC", "PBM E-score": 0.124}, {"sequence": "CCTACTCA", "PBM E-score": -0.0162}, {"sequence": "CGTTTCCC", "PBM E-score": -0.06}, {"sequence": "CTCCGTAA", "PBM E-score": -0.0462}, {"sequence": "CGCGACAG", "PBM E-score": -0.227}, {"sequence": "CGCACAGA", "PBM E-score": -0.018}, {"sequence": "CCCATCTC", "PBM E-score": -0.148}, {"sequence": "AAGCGGAG", "PBM E-score": -0.214}, {"sequence": "ACACGTTG", "PBM E-score": -0.099}, {"sequence": "AGAAACGA", "PBM E-score": 0.05}, {"sequence": "ATGCCCCG", "PBM E-score": -0.104}, {"sequence": "ACATCCCC", "PBM E-score": -0.119}, {"sequence": "CCCCCAAA", "PBM E-score": -0.178}, {"sequence": "TACCGCAA", "PBM E-score": 0.115}, {"sequence": "CCTCTGAG", "PBM E-score": -0.254}, {"sequence": "ACGGTGAG", "PBM E-score": -0.0622}, {"sequence": "CATCCTGA", "PBM E-score": 0.0896}, {"sequence": "CCATGGTA", "PBM E-score": -0.153}, {"sequence": "GAGATCGC", "PBM E-score": -0.11}, {"sequence": "AGTAGACC", "PBM E-score": -0.079}, {"sequence": "CACCCCTA", "PBM E-score": -0.0641}, {"sequence": "CTGCCTGC", "PBM E-score": -0.232}, {"sequence": "CGGACCTC", "PBM E-score": -0.152}, {"sequence": "GCTATAGA", "PBM E-score": 0.0161}, {"sequence": "CCGGAGTC", "PBM E-score": -0.129}, {"sequence": "AGTTTAAC", "PBM E-score": -0.0744}, {"sequence": "GATGCGGC", "PBM E-score": 0.237}, {"sequence": "CGAGACTA", "PBM E-score": 0.0119}, {"sequence": "CGCTTGGC", "PBM E-score": -0.109}, {"sequence": "GCAGGGGA", "PBM E-score": -0.374}, {"sequence": "AGCCTGGC", "PBM E-score": -0.298}, {"sequence": "CGGAACGC", "PBM E-score": -0.103}, {"sequence": "GTAGCCCA", "PBM E-score": -0.0774}, {"sequence": "GCTAAGAC", "PBM E-score": -0.0875}, {"sequence": "CTGTATCC", "PBM E-score": -0.0941}, {"sequence": "CAAGCTCG", "PBM E-score": -0.253}, {"sequence": "ATAAACGC", "PBM E-score": 0.0481}, {"sequence": "CCGTTGGC", "PBM E-score": -0.0595}, {"sequence": "ATACCCTA", "PBM E-score": -0.107}, {"sequence": "AATCTCTA", "PBM E-score": 0.146}, {"sequence": "CGTTGCAA", "PBM E-score": 0.00332}, {"sequence": "CACCGCCG", "PBM E-score": -0.0696}, {"sequence": "CAATATGA", "PBM E-score": 0.245}, {"sequence": "TACGGCTA", "PBM E-score": 0.0905}, {"sequence": "ATCGGTTC", "PBM E-score": -0.0289}, {"sequence": "AGCCTTCC", "PBM E-score": -0.243}, {"sequence": "CAGATGAG", "PBM E-score": 0.0374}, {"sequence": "CTCATGTC", "PBM E-score": 0.0261}, {"sequence": "GCAGGTGA", "PBM E-score": 0.109}, {"sequence": "AACGGCTT", "PBM E-score": 0.0157}, {"sequence": "AGCCATGG", "PBM E-score": -0.0543}, {"sequence": "TAAACCGA", "PBM E-score": -0.0476}, {"sequence": "AGGGCCAT", "PBM E-score": -0.123}, {"sequence": "GTTCGTCA", "PBM E-score": 0.269}, {"sequence": "AGCCCTGC", "PBM E-score": -0.0836}, {"sequence": "CGTGGGGA", "PBM E-score": -0.164}, {"sequence": "CTAGGGCC", "PBM E-score": -0.206}, {"sequence": "CCGATCAC", "PBM E-score": 0.0824}, {"sequence": "ACCGGGAA", "PBM E-score": 0.0359}, {"sequence": "GGGAGTAA", "PBM E-score": -0.0415}, {"sequence": "AGGGGTAC", "PBM E-score": -0.273}, {"sequence": "CTATTCAA", "PBM E-score": 0.197}, {"sequence": "GTGACACA", "PBM E-score": 0.322}, {"sequence": "AGCTTGGC", "PBM E-score": -0.251}, {"sequence": "ACTCATTG", "PBM E-score": -0.129}, {"sequence": "AGCACGCG", "PBM E-score": 0.0232}, {"sequence": "AGTAGATG", "PBM E-score": 0.147}, {"sequence": "CAGGCCAC", "PBM E-score": -0.174}, {"sequence": "AGCTCCGA", "PBM E-score": -0.145}, {"sequence": "CCGCTAAG", "PBM E-score": -0.0767}, {"sequence": "CGGGCCCG", "PBM E-score": -0.0625}, {"sequence": "CAGACGCG", "PBM E-score": -0.17}, {"sequence": "GCCTTTGA", "PBM E-score": -0.0769}, {"sequence": "GTAGTTAA", "PBM E-score": 0.129}, {"sequence": "ACTTAGGA", "PBM E-score": -0.161}, {"sequence": "AGAGCTGG", "PBM E-score": -0.185}, {"sequence": "GGGGCCAA", "PBM E-score": -0.319}, {"sequence": "GACTGTAA", "PBM E-score": 0.0809}, {"sequence": "GGAGCCCA", "PBM E-score": -0.289}, {"sequence": "ACCCAACC", "PBM E-score": -0.128}, {"sequence": "TCGGCAGA", "PBM E-score": -0.0704}, {"sequence": "AAGAACTT", "PBM E-score": 0.064}, {"sequence": "AGGTGCCA", "PBM E-score": -0.098}, {"sequence": "CTTGATGC", "PBM E-score": -0.0156}, {"sequence": "AGATGGAG", "PBM E-score": -0.221}, {"sequence": "ATAATGAT", "PBM E-score": 0.334}, {"sequence": "GAAAAAAC", "PBM E-score": 0.193}, {"sequence": "CTTTCTCA", "PBM E-score": 0.21}, {"sequence": "ATACCACA", "PBM E-score": 0.0944}, {"sequence": "ATACGGTA", "PBM E-score": 0.208}, {"sequence": "GCGGTAGC", "PBM E-score": -0.202}, {"sequence": "CACCTGGC", "PBM E-score": -0.159}, {"sequence": "GAGTAGGC", "PBM E-score": -0.017}, {"sequence": "CTTCGTTC", "PBM E-score": -0.0417}, {"sequence": "CGAGACCC", "PBM E-score": -0.107}, {"sequence": "CGTGTTCC", "PBM E-score": -0.103}]}]}
